Laboratory results published in the supplement of paper PMC4604168 (melanoma cell lines).
The other results are listed elsewhere or left out. Repeats are few or missing, and single values can be far off.

How the values were obtained:
Assay in all cases: cell count relative to DMSO control; melanoma cells; higher = more viable cells
Details in all cases: library dose: low library concentration; 72 h
[1] = test system: WM115
[2] = test system: WM1716
[3] = test system: WM1745
[4] = test system: WM3526
[5] = test system: WM3619
[6] = test system: WM451Lu
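Note: cell number obtained by counting DAPI-stained nuclei in high-throughput microscope images with image analysis software, screen run in 1,536-well plates.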

| SMILES | cell count [1] | cell count [2] | cell count [3] | cell count [4] | cell count [5] | cell count [6] |
| --- | --- | --- | --- | --- | --- | --- |
| Cn1c(=O)n(-c2ccc(C(C)(C)C#N)cc2)c2c3cc(-c4cnc5ccccc5c4)ccc3ncc21 + O=C(O)c1ccc(-c2c[nH]c3ncc(-c4ccccc4)cc23)cc1C1CCCC1 [GSK650394] (first compound 0.004 µM, partner dose 0.16 µM) | 89.4% | 89.6% | 91.7% | 94.3% | 83.3% | 119% |
| Cc1cn(-c2cc(NC(=O)c3ccc(C)c(Nc4nccc(-c5cccnc5)n4)c3)cc(C(F)(F)F)c2)cn1 [nilotinib] + O=c1cc(-c2cccc3c2Sc2ccccc2S3)oc(N2CCOCC2)c1 [KU55933] (first compound 0.2 µM, partner dose 1 µM) | 109% | 107% | 84.3% | 90.7% | 113% | 114% |
| CC(C)C[C@H](NC(=O)[C@H](Cc1ccccc1)NC(=O)c1cnccn1)B(O)O [Bortezomib] + O=S(=O)(c1ccccc1)N(CC(F)(F)F)c1ccc(C(O)(C(F)(F)F)C(F)(F)F)cc1 [T0901317] (first compound 0.001 µM, partner dose 1.4 µM) | 105% | 20.7% | 44.6% | 80.2% | 13.9% | 68.4% |
| COc1ccc(C2=N[C@@H](c3ccc(Cl)cc3)[C@@H](c3ccc(Cl)cc3)N2C(=O)N2CCNC(=O)C2)c(OC(C)C)c1 [Nutlin-3] + O=C(Nc1ccccc1)c1cc([N+](=O)[O-])ccc1Cl [GW9662] (first compound 0.1 µM, partner dose 2 µM) | 95.8% | 76.1% | 87.1% | 96.7% | 74.5% | 105% |
| CC(C)C[C@H](NC(=O)[C@H](Cc1ccccc1)NC(=O)c1cnccn1)B(O)O [Bortezomib] + COc1cc2c(Oc3ccc4[nH]c(C)cc4c3F)ncnc2cc1OCCCN1CCCC1 [cediranib] (first compound 0.001 µM, partner dose 0.4 µM) | 108% | 36.8% | 62.7% | 41.8% | 29.8% | 111% |
| Cc1cn(-c2cc(NC(=O)c3ccc(C)c(Nc4nccc(-c5cccnc5)n4)c3)cc(C(F)(F)F)c2)cn1 [nilotinib] + CO[C@H]1C[C@@H]2CC[C@@H](C)[C@@](O)(O2)C(=O)C(=O)N2CCCC[C@H]2C(=O)O[C@H]([C@H](C)C[C@@H]2CC[C@@H](OCCO)[C@H](OC)C2)CC(=O)[C@H](C)/C=C(\C)[C@@H](O)[C@@H](OC)C(=O)[C@H](C)C[C@H](C)/C=C/C=C/C=C/1C [everolimus] (first compound 0.2 µM, partner dose 0.02 µM) | 78.9% | 75.8% | 74.7% | 75.2% | 89.6% | 94.3% |
| Cc1cc(Nc2cc(N3CCN(C)CC3)nc(/C=C/c3ccccc3)n2)n[nH]1 + CCN(CC)CCCCNc1ncc2cc(-c3cc(OC)cc(OC)c3)c(NC(=O)NC(C)(C)C)nc2n1 [PD173074] (first compound 0.04 µM, partner dose 0.1 µM) | 98.5% | 111% | 95.3% | 113% | 110% | 95.6% |
| Cc1cc(Nc2cc(N3CCN(C)CC3)nc(/C=C/c3ccccc3)n2)n[nH]1 + CO[C@H]1C[C@@H]2CC[C@@H](C)[C@@](O)(O2)C(=O)C(=O)N2CCCC[C@H]2C(=O)O[C@H]([C@H](C)C[C@@H]2CC[C@@H](OCCO)[C@H](OC)C2)CC(=O)[C@H](C)/C=C(\C)[C@@H](O)[C@@H](OC)C(=O)[C@H](C)C[C@H](C)/C=C/C=C/C=C/1C [everolimus] (first compound 0.04 µM, partner dose 0.02 µM) | 79.1% | 87.1% | 97.5% | 67.1% | 77.5% | 77.7% |
| Cn1c(=O)n(-c2ccc(C(C)(C)C#N)cc2)c2c3cc(-c4cnc5ccccc5c4)ccc3ncc21 + CO[C@@H]1[C@H](N(C)C(=O)c2ccccc2)C[C@H]2O[C@]1(C)n1c3ccccc3c3c4c(c5c6ccccc6n2c5c31)C(=O)NC4 [Midostaurin] (first compound 0.004 µM, partner dose 0.08 µM) | 74% | 66.7% | 80.6% | 85.3% | 71.6% | 102% |
| Cn1c(=O)n(-c2ccc(C(C)(C)C#N)cc2)c2c3cc(-c4cnc5ccccc5c4)ccc3ncc21 + O=C(O)[C@@H]1[O][Sb](=[O])([O][Sb]2(=[O])[O][C@H]([C@H](O)CO)[C@H](O)[C@H](C(=O)O)[O]2)[O][C@H]([C@H](O)CO)[C@@H]1O [stibogluconate] (first compound 0.004 µM, partner dose 2 µM) | 100% | 108% | 105% | 101% | 115% | 94.7% |
| Cc1cn(-c2cc(NC(=O)c3ccc(C)c(Nc4nccc(-c5cccnc5)n4)c3)cc(C(F)(F)F)c2)cn1 [nilotinib] + CCN(CC)CCNC(=O)c1c(C)[nH]c(/C=C2\C(=O)Nc3ccc(F)cc32)c1C [sunitinib] (first compound 0.2 µM, partner dose 0.4 µM) | 108% | 131% | 91.6% | 102% | 135% | 105% |
| Cc1cc(Nc2cc(N3CCN(C)CC3)nc(/C=C/c3ccccc3)n2)n[nH]1 + Cc1nc(Nc2ncc(C(=O)Nc3c(C)cccc3Cl)s2)cc(N2CCN(CCO)CC2)n1 [dasatanib] (first compound 0.04 µM, partner dose 0.004 µM) | 93.5% | 92% | 100% | 87.8% | 91.3% | 99.1% |
| CC(C)C[C@H](NC(=O)[C@H](Cc1ccccc1)NC(=O)c1cnccn1)B(O)O [Bortezomib] + Clc1ccc(Nc2nnc(Cc3ccncc3)c3ccccc23)cc1 [vatalanib] (first compound 0.001 µM, partner dose 2 µM) | 103% | 22.3% | 51.2% | 96.4% | 10.6% | 91.9% |
| CC(C)C[C@H](NC(=O)[C@H](Cc1ccccc1)NC(=O)c1cnccn1)B(O)O [Bortezomib] + O=C1NC(=O)/C(=C/c2ccc(-c3ccc(F)cc3O)o2)S1 [AS252424] (first compound 0.001 µM, partner dose 1 µM) | 92.1% | 28.8% | 56.4% | 83.1% | 22% | 90% |
| COc1ccc(C2=N[C@@H](c3ccc(Cl)cc3)[C@@H](c3ccc(Cl)cc3)N2C(=O)N2CCNC(=O)C2)c(OC(C)C)c1 [Nutlin-3] + Nc1nc(F)nc2c1ncn2[C@@H]1O[C@H](CO)[C@@H](O)[C@@H]1O [fludarabine] (first compound 0.1 µM, partner dose 0.2 µM) | 88.8% | 89.8% | 97.9% | 30.6% | 86.5% | 63.5% |
| Cc1cn(-c2cc(NC(=O)c3ccc(C)c(Nc4nccc(-c5cccnc5)n4)c3)cc(C(F)(F)F)c2)cn1 [nilotinib] + NC(=O)Nc1cc(-c2cccc(F)c2)sc1C(=O)N[C@H]1CCCNC1 [AZD7762] (first compound 0.2 µM, partner dose 0.02 µM) | 88.6% | 94% | 87.2% | 76.9% | 39.8% | 91.7% |
| CC(C)C[C@H](NC(=O)[C@H](Cc1ccccc1)NC(=O)c1cnccn1)B(O)O [Bortezomib] + COc1cc2ncnc(Nc3ccc(Oc4ccccc4)cc3)c2cc1OC [SrcI1] (first compound 0.001 µM, partner dose 2 µM) | 124% | 23.3% | 29.6% | 76.7% | 6.26% | 91.9% |
| CC(C)C[C@H](NC(=O)[C@H](Cc1ccccc1)NC(=O)c1cnccn1)B(O)O [Bortezomib] + COc1ccc(-c2ccc3c(N4CCOCC4)nc(N4C[C@@H](C)O[C@@H](C)C4)nc3n2)cc1CO [KU0063794] (first compound 0.001 µM, partner dose 0.02 µM) | 94.1% | 18% | 56% | 85.2% | 8.63% | 84.9% |
| CC(C)C[C@H](NC(=O)[C@H](Cc1ccccc1)NC(=O)c1cnccn1)B(O)O [Bortezomib] + Cc1ccc(NC(=O)c2cccc(N(C)C)c2)cc1NC(=O)c1ccc(O)cc1 [ZM336372] (first compound 0.001 µM, partner dose 2 µM) | 106% | 33.7% | 50.9% | 84% | 14.1% | 91.7% |
| Cn1c(=O)n(-c2ccc(C(C)(C)C#N)cc2)c2c3cc(-c4cnc5ccccc5c4)ccc3ncc21 + COc1cc(N2CCC(N3CCN(C)CC3)CC2)ccc1Nc1ncc(Cl)c(Nc2ccccc2S(=O)(=O)C(C)C)n1 [NVP-TAE684] (first compound 0.004 µM, partner dose 0.08 µM) | 74.5% | 82.3% | 87.8% | 97.2% | 103% | 86.6% |
| COc1ccc(C2=N[C@@H](c3ccc(Cl)cc3)[C@@H](c3ccc(Cl)cc3)N2C(=O)N2CCNC(=O)C2)c(OC(C)C)c1 [Nutlin-3] + CC1(C)NC(=O)N(c2ccc([N+](=O)[O-])c(C(F)(F)F)c2)C1=O [nilutamide] (first compound 0.1 µM, partner dose 1 µM) | 82.9% | 80.3% | 77% | 103% | 75.8% | 101% |
| Cc1cc(Nc2cc(N3CCN(C)CC3)nc(/C=C/c3ccccc3)n2)n[nH]1 + Cc1ccc(NC(=O)c2cccc(N(C)C)c2)cc1NC(=O)c1ccc(O)cc1 [ZM336372] (first compound 0.04 µM, partner dose 2 µM) | 86.2% | 113% | 77.6% | 74.8% | 97.3% | 68.9% |
| COc1ccc(C2=N[C@@H](c3ccc(Cl)cc3)[C@@H](c3ccc(Cl)cc3)N2C(=O)N2CCNC(=O)C2)c(OC(C)C)c1 [Nutlin-3] + CCCCCCCCc1ccc(CCC(N)(CO)CO)cc1 [fingolimod] (first compound 0.1 µM, partner dose 2 µM) | 91.7% | 75.4% | 79.7% | 84.2% | 84.3% | 130% |
